Test results reported in the supplement of paper PMC10126150.
Values marked as one replicate rest on one cluster of the flow cell; about a third of the high ones do not repeat.

tested on: ATP; assay: switch fluorescence ratio, 500 uM ATP over buffer (Cy3 cluster intensity, sum of 5 cycles each) (fold (ratio)); higher = stronger signal-on switching upon ATP binding; sequences stand for … in TCGTCGGCAGCGTCAGATGTGTATAAGAGACAGTTTTTTTTTTTTTTTTTTTTTTTTT…TC; conditions: aptamer strand: ATP DNA aptamer (quencher-CACCTGGGGGAGTATTGCGGAGGAAGG + anchor), 100 nM annealed; ATP concentration: 500 uM; one replicate
Summary of the method: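 Five buffer/ATP imaging cycles were run on Cy3-labelled switching-strand clusters on a modified Illumina MiSeq flow-cell, with NaOH stripping and re-annealing between cycles. In each cycle, clusters annealed to 100 nM quencher-labelled ATP aptamer were imaged in selection buffer, then after 15 min with 500 uM ATP at 22 °C. Per cluster, the fluorescence ratio is summed target-cycle over summed buffer-cycle Cy3 intensity, averaged per switch-domain sequence. Only clusters within 100-1000 RFU were kept.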
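Further: ATP exposure 15 min at 22 °C before imaging.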

| Sequence | switch fluorescence ratio |
| --- | --- |
| GAGAATTAGA | 1.01 |
| AGATGATACC | 1.02 |
| TAAGTGATTT | 0.991 |
| CGTAAGATGG | 1.03 |
| CTGTAGTGAG | 1.06 |
| ATTGACTCTA | 1.11 |
| TCAAGGGGTA | 0.994 |
| TGGATTTGAC | 1.06 |
| AAGCAGTACT | 2.91 |
| GAAGTCTCTT | 0.977 |
| GACTACGACA | 1.19 |
| TTCGAGGGG | 0.988 |
| CTGCGCGCTC | 1.36 |
| CTACTTTCGA | 1.02 |
| CGTCGGATAG | 1.05 |
| TAGCGTTACT | 1.42 |
| TCGTCTTAAC | 1.06 |
| TGAGTTCACT | 1 |
| TAGGATCACT | 1.01 |
| ACAACGATAG | 0.994 |
| AGACGTAGAG | 0.965 |
| TCGGCGCGAG | 0.996 |
| ACTCCCCGAT | 1.14 |

| Sequence | switch fluorescence ratio |
| --- | --- |
| CGGCGCATG | 1.35 |
| CTAGAATG | 1.02 |
| TGAAATCCTT | 1.04 |
| TCTATTTAAC | 1.04 |
| CCACCCAGAA | 1.18 |
| GGATTTCGTA | 0.991 |
| GGCTCTTAGA | 0.985 |
| CGCTGATATT | 1.08 |
| AGACTCGGAC | 1.02 |
| GGTGATCTGG | 0.958 |
| ATATTCCAGT | 1 |
| CATAATGTG | 0.957 |
| TACCGTCGCG | 1.09 |
| CGTGGCGACC | 1.01 |
| GAATCTGAAC | 1.08 |
| TTATTTCTCT | 0.977 |
| AACACGATAC | 1.95 |
| CAGTAACGCG | 0.885 |
| TGTATCTTCC | 2.66 |
| TGGCAAATG | 0.996 |
| GGTCTGTTCG | 0.966 |
| TTTACTTGT | 1.01 |
| TCTGGGATGT | 0.998 |

| Sequence | switch fluorescence ratio |
| --- | --- |
| AGGGAGATTA | 1.03 |
| TGATGGGAGG | 1.02 |
| AAAAGACTCA | 1.08 |
| AGTCACTCAT | 0.987 |
| TCTATTTGAA | 0.997 |
| CTTGTTGTGG | 0.96 |
| CTCTTTGTAA | 1.06 |
| ACAACGCCTG | 0.971 |
| TGCATGGTAG | 0.998 |
| CTTCTATAAG | 0.99 |
| ACTGATGGTT | 1.04 |
| GATGCTCGTA | 0.961 |
| AAAGTTAAGA | 0.993 |
| GATCATACCT | 1.29 |
| GATACATGCG | 1.02 |
| TATCGTATGG | 1.05 |
| AATAAGTCCA | 1.02 |
| GACGCCAGGC | 1.45 |
| CCGGGCTAAA | 1.42 |
| TATCGGTATA | 1 |
| TAACAGATT | 0.991 |
| GACCAAATAT | 1.01 |
| GCTAGTCATA | 0.96 |

| Sequence | switch fluorescence ratio |
| --- | --- |
| ATGTAGACGA | 1 |
| GATCTGACTC | 1.13 |
| GAAGGTCTGC | 0.996 |
| GGACGTCTCG | 1.03 |
| TCCAAGTATA | 1.01 |
| GGTACTAGGT | 1.02 |
| GGAGACCGTT | 1.04 |
| CTCAAATAAA | 0.923 |
| TCCTCCGGGG | 1.2 |
| CTGATGCTGT | 1.12 |
| TCTAAAAGTC | 0.996 |
| CTTGATGGAC | 1.04 |
| ATACCTTGGG | 1.05 |
| AGCTTTGCAA | 1.18 |
| GAGCACGGAG | 0.961 |
| CAGGGGACT | 1.02 |
| AAAGTTTATT | 1.03 |
| AGCGGTGATG | 1.03 |
| ATGGGTAGA | 1.01 |
| ACGGGAACGT | 1 |
| CAAAGATATC | 1.02 |
| GTTGCGCAAA | 1.03 |
| GTAGTAATCT | 1.12 |

| Sequence | switch fluorescence ratio |
| --- | --- |
| AAGCCCTTAC | 1.66 |
| ATATGGCGGG | 0.989 |
| ATTCTGAAAC | 1.07 |
| AGTGAGTAG | 0.987 |
| TAAGAGGTAT | 1.02 |
| TCGTTAGAAA | 1.01 |
| TGGCGTATCT | 1.04 |
| ACGGGAGGCG | 0.963 |
| TAATATTAA | 0.965 |
| CTCGCACTC | 3.74 |
| GAAGATGCAG | 0.913 |
| AAAGCATCCT | 1.14 |
| ATCGTCTCTC | 0.984 |
| TTAGAAAGGT | 1.01 |
| TTGCGGAACC | 0.983 |
| TTCGGTACTA | 1.02 |
| GGCTTAATCA | 0.96 |
| CTATTGCTCA | 1.03 |
| GAAGAAGCTT | 1.01 |
| AGTAGATTCT | 0.964 |
| CGCCTATTTA | 1.02 |
| CAAGGTACAA | 1.05 |
| TTACGGTACA | 1.51 |

| Sequence | switch fluorescence ratio |
| --- | --- |
| CGGTGAGTAT | 0.996 |
| TTCCGGCG | 1.02 |
| TCTTGATCGG | 0.962 |
| AGACGTCGCC | 0.989 |
| AAGTACGGTT | 1.29 |
| CATCTAAAAG | 1.02 |
| TAACCGTCTG | 1.02 |
| CTGGGTGGAG | 1.01 |
| TCAACATGAA | 0.993 |
| TAAACGCACT | 1.65 |
| GATCAAGATG | 1.01 |
| AGCTAAACTG | 0.9 |
| TTGCTTAGTG | 0.995 |
| ATTATCACCT | 1.16 |
| TCCGTCTTTC | 1.03 |
| ACCGTCCAGG | 1.02 |
| TTCTTTTTGT | 1.06 |
| CCAACGGCCG | 1.06 |
| CCATTTGCTT | 1.02 |
| CAACTTAGGT | 0.977 |
| CCGTACCCAT | 1.2 |
| TTCCAAGAG | 1.05 |
| TTTTTTCTCA | 0.985 |

| Sequence | switch fluorescence ratio |
| --- | --- |
| AACAGTGCAA | 0.978 |
| TACTCGTCGG | 1 |
| GTGCTCAGT | 0.957 |
| ATGTTCAGAA | 0.984 |
| ATCTTTTAGA | 0.984 |
| TCTTCCACAG | 2 |
| TAACTTTCGG | 1.02 |
| GCCGCTTTCT | 0.969 |
| TGACCTTACT | 2.01 |
| GGAAAAGGAT | 0.957 |
| CTAGAATGAA | 1.02 |
| CCCGGTGCCC | 1.47 |
| GCTGTCTAGG | 0.978 |
| TAAAGACCGC | 0.997 |
| CACGTAGGGA | 1.12 |
| AGCCCTGCTA | 1.01 |
| ATGGTGGACA | 0.973 |
| GTGGGGAGCA | 0.95 |
| GTTGATGATC | 0.971 |
